# Laboratory results published in the supplement of paper PMC3334620.
# The full ranking holds about 33,000 sequences; the median of “E-score (-0.5 to 0.5)” is about -0.012, and the highest 2% start at about 0.29. Some of the results follow.
# Target: T1, Ybr033w (UniProt P38073)
# T1 sequence: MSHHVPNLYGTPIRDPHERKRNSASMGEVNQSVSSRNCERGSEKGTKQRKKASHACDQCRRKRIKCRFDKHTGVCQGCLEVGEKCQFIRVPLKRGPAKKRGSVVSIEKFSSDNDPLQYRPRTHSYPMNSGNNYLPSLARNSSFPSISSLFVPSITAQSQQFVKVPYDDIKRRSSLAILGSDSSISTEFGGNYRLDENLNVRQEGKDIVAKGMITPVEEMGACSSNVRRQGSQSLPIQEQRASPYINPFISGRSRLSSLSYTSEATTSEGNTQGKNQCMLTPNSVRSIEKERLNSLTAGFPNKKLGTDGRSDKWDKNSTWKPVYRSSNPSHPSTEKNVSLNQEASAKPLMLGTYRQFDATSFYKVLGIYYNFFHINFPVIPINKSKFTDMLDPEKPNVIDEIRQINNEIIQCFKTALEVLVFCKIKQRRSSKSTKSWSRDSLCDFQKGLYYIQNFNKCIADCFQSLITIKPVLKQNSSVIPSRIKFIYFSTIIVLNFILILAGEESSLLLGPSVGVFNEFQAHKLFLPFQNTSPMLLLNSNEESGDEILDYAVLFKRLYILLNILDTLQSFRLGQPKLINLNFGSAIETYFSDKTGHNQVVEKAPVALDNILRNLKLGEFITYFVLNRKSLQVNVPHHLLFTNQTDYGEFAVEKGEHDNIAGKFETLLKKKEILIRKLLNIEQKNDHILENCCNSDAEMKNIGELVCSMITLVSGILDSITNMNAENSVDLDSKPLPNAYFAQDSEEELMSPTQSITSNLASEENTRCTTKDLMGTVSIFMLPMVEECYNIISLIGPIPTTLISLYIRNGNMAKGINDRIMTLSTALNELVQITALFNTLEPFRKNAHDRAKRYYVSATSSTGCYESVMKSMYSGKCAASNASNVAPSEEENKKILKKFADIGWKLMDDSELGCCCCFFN
# Assay: PBM E-score (8-mer binding enrichment) (E-score (-0.5 to 0.5)); higher = stronger / more preferred TF binding; most listed sequences are background and not binding sites
# Settings: protein concentration: 200 nM; construct: GST-full length
# Outline: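 For each ungapped eight-base word taken together with its reverse complement, the Universal PBM Analysis Suite assigned an E-score. Binding data came from GST-tagged yeast transcription factors, applied at about 100-200 nM, on universal all-10-mer Agilent arrays made double-stranded by primer extension. Fluorescent anti-GST marked bound protein, and scans were normalised with masliner.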
row,Sequence,PBM E-score
1,CGATCCTC,-0.118
2,TCCATAAA,0.0621
3,CCCTATAA,-0.0973
4,ACGTACTC,-0.0193
5,AGATAATC,0.306
6,CAGCGATA,0.00335
7,GATCCAGA,0.149
8,CCACGCCG,-0.189
9,AATGGTTA,0.0304
10,ATCGAGAC,-0.0799
11,ATCGTGCA,-0.0327
12,AGCCATAT,0.0848
13,CTGGACTA,-0.102
14,CAGGTTCA,0.026
15,GCGATCTA,-0.0272
16,CGTGTGAA,-0.0687
17,CCAAGGAG,0.0969
18,GACACCTA,-0.123
19,GTTCATAA,0.199
20,AATCTACC,0.0877
21,GTCTGTTA,0.0183
22,ACTGTCCG,-0.166

row,Sequence,PBM E-score
1,TGCGTACA,-0.0421
2,CGCTGAGA,-0.112
3,TACAACAA,0.154
4,GCCAGAAA,0.126
5,AACCTTAC,0.257
6,CTGTGGTA,0.0549
7,CAGCAGTC,-0.0918
8,CCATATAC,0.0859
9,ATTGATAG,0.257
10,AGGGCGGC,-0.353
11,ACACTTCT,-0.131
12,CTATGAAA,0.109
13,ATATAACA,0.272
14,ATGCGTTG,-0.0395
15,ACTCTCTC,-0.0127
16,GACTTAAA,0.0498
17,AGTATACA,0.185
18,ACTGTTTG,0.0601
19,ACTTTGGA,0.156
20,CTGGGAAC,0.0276
21,GCATCCAC,0.0709
22,GGTTTAAC,0.00357

row,Sequence,PBM E-score
1,GAGTGCGA,-0.158
2,CAACATAC,0.0539
3,ACTTCACA,0.204
4,CCCAACGC,-0.15
5,CTTAAGCC,-0.0683
6,CAGAGCAG,-0.0586
7,ACAAGAAT,0.266
8,AATTGTAC,0.337
9,ACGGCCCG,-0.218
10,ATTACGAC,0.252
11,GAGTCCCA,-0.138
12,AGTTAGGG,-0.137
13,AAACTTAA,0.259
14,CCCGTTCC,-0.0733
15,AATCTTCC,0.411
16,GAGATTCC,-0.0679
17,AGAAGTCT,-0.0489
18,ATGTTAGG,-0.00048
19,ATCTAATG,0.105
20,CCATTAGA,-0.14
21,AGAACACC,0.0509
22,CACAAACA,0.0559

row,Sequence,PBM E-score
1,CTACATTA,0.0958
2,ACACAAGA,0.135
3,CTCGAATC,-0.0751
4,CCCGGGCA,-0.0968
5,AGACCGGG,-0.086
6,ACGCAAGG,-0.0439
7,CATGTCCG,-0.287
8,AGCGCTAG,-0.101
9,CTACCTCA,-0.232
10,CCTTCAGA,-0.0455
11,CCGGACGA,-0.105
12,CACACGCG,-0.0675
13,AACAAAAC,0.171
14,ACCGACTG,-0.141
15,ATAACAGA,0.113
16,CAGTAGGA,-0.0741
17,CACCGGTC,-0.393
18,AGGGTTGA,-0.0655
19,AAATCCTT,0.0822
20,TACCGGCA,-0.203
21,AGAACAAC,0.0473
22,CGACACTA,-0.0325

row,Sequence,PBM E-score
1,CATTTATA,0.19
2,GCCGTGGA,-0.133
3,AAGCCCTT,-0.252
4,AGGGGACG,-0.301
5,CATACCCA,0.0973
6,CTGGTTCA,-0.0931
7,AAAAAGTG,0.145
8,GTGTACGA,0.108
9,ACAAGCAC,-0.0334
10,ATAGTGAT,0.153
11,CCTGAAAA,-0.035
12,GCCCAGAC,-0.403
13,CCGGTCGC,-0.176
14,AATAAGTA,0.268
15,AGTCCAAC,-0.12
16,GGGGTTCA,-0.111
17,ATCTTTCA,0.0283
18,AGTCTTGC,-0.106
19,AGATTTGA,0.141
20,GCGCCCTA,-0.269
21,AATAGGAG,-0.253
22,GACGCAGC,-0.18
